Hit rate of the full screen: of about 310,000 compounds, about 14,000 (4.5%) showed an effect of 50% or more. The effect is printed as a negative number. The list shows a part of the results.
These compounds were tested against human ether-à-go-go-related gene (hERG) potassium channel (human, UniProt Q12809) (assay: primary screen, population patch clamp on CHO cells stably expressing hERG).
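Note: peak tail current of the secondary pulse compared with the same well before compound.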

Chain of human ether-à-go-go-related gene (hERG) potassium channel (Q12809 whole entry, looked up): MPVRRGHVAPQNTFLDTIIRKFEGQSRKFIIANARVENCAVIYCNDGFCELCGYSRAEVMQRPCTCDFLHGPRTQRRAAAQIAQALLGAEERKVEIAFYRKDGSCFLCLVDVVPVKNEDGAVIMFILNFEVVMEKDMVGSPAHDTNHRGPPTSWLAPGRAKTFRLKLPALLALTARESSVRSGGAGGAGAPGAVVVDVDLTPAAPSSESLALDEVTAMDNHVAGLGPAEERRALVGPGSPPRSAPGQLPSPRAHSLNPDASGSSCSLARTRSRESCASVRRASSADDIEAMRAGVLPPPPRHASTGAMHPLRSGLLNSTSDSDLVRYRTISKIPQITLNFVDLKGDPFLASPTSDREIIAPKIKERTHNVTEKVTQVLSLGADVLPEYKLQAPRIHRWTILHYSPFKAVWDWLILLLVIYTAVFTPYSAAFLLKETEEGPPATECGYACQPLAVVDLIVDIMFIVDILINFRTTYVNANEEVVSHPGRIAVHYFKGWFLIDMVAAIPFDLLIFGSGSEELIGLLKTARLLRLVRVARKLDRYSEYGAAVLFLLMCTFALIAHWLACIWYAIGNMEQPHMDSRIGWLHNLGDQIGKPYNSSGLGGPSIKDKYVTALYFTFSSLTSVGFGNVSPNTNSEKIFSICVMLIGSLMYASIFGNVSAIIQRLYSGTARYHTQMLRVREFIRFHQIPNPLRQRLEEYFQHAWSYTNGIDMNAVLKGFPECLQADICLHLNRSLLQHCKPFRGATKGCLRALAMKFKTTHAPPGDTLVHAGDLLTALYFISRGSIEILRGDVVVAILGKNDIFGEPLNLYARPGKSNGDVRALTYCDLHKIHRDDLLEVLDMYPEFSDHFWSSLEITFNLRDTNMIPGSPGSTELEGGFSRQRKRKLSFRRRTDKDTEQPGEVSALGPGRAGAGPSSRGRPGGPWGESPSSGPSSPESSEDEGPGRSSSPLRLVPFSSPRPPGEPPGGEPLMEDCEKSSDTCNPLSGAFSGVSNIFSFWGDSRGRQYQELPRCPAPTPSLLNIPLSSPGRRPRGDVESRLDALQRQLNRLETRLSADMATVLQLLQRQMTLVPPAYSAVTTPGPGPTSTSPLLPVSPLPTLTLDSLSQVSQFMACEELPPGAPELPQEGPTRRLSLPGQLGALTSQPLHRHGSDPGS

Row | Structure (SMILES) | hERG current change (%, negative = inhibition) at 10uM
1 | CSc1ccc(C#N)cc1NC(=O)c1ccc(Cl)cc1Cl | -9.36%
2 | Cc1cccc(N2C(=O)C(O)=C(C(=O)c3cccs3)C2c2ccc(C(C)C)cc2)n1 (stereo not drawn) | -9.21%
3 | O=C(NC1CCCC1)C(c1ccccc1F)N(C(=O)Cc1cccs1)c1ccc2c(c1)OCCO2 (stereo not drawn) | -15.1%
4 | Cc1ccc(NC(=O)CCNC(=O)c2ccc([N+](=O)[O-])cc2)cc1C | -0.694%
5 | Cc1ccc(NC(=O)C(C)OC(=O)/C=C/c2ccccc2)cc1S(=O)(=O)N1CCOCC1 (stereo not drawn) | -8.78%
6 | CCc1ccc(CCN2C(=O)c3ccccc3C2=O)nc1 | -27.9%
7 | COCN(C#N)c1nc(OC)nc(OC)n1 | 9.19%
8 | CCOC(=O)c1ccc2c(c1)nc(C1CCN(S(=O)(=O)c3cccs3)CC1)n2CC | -43.6%
9 | Nc1nc(Cl)cc(Oc2ccccc2F)n1 | 2.9%
10 | COc1ccc(C(=O)O)cc1S(=O)(=O)Nc1ccc(Oc2ccccc2)cc1 | -14.8%
11 | CC1CN(C(=O)COC(=O)c2cc([N+](=O)[O-])ccc2Cl)CC(C)O1 (stereo not drawn) | 5.39%
12 | O=C(CC1CCCCC1)Nc1ncn[nH]1 | 6.78%
13 | O=C(OCc1ccccc1)N1CCOCCN(C(=O)OCc2ccccc2)CCOCC1 | -64%
14 | COc1ccc(NC(=O)CCC(=O)OC(C(=O)c2ccccc2)c2ccccc2)cc1 (stereo not drawn) | -2.03%
15 | COc1ccc(CC(C)N2CCN(c3ccccc3OC)CC2)cc1OC (stereo not drawn) | -62.1%
16 | CN(c1ccccc1)S(=O)(=O)c1cccc(NC(=O)c2cncc(Br)c2)c1 | -24%
17 | COc1ccc(NCc2nnc(SCC(=O)Nc3ccccc3)n2C)cc1 | -12.5%
18 | O=c1c(-c2ccccc2)nnc2sc(COc3ccc(Br)cc3)nn12 | 17%
19 | CCN(c1ccc(NC(=O)COC(=O)c2cccs2)cc1)C(C)C | -2.66%
20 | COc1cccc(C(=O)CN(C(=O)c2ccc(Cl)cc2Cl)N2C(=O)c3ccccc3C2=O)c1 | -11.8%
21 | CCOc1ccccc1CN1CCC(CO)(CCOc2ccccc2)CC1 | -80.2%
22 | Cc1cc(C(=O)OCC(=O)N2CCc3ccccc32)c(C)o1 | 12.9%
23 | CCOCCn1ccc2c(OCC(=O)NCCc3ccc(OC)c(OC)c3)cccc2c1=O | -19.2%
24 | COC(=O)c1c(C)c(OC(=O)c2c(C)cc(O)c(C=O)c2O)cc(C)c1O | 26.4%
